Source: PubChem BioAssay AID624296 (National Center for Advancing Translational Sciences (NCATS), 2012)
Out of some 350,000 compounds screened, about 9,900 (2.8%) were called active. This list was built around the results that the source calls inconclusive (neither active nor inactive); the mix of calls is not that of the screen. Calls come from the whole dose curve; as a rule, active = well fitted activation curve with a large enough effect; inconclusive = small, poorly fitted or top-dose-only effect; inactive = no such curve, though single readings can be large or run the other way. Potencies of inconclusive entries are left out as doubtful fits.

Assay: A quantitative high throughput screen for small molecules that induce DNA re-replication in MCF 10a normal breast cells. Note: nearly all actives have a fitted effect of over 50% in size.
Conditions: MCF 10A DNA re-replication, Hoechst nuclear intensity, 48 h; series mostly up to 46.1 µM
Potency is the fitted concentration of half-maximal effect; tags give direction and shape of the fitted curve.

Structure (SMILES)	Potency
CCOc1ccccc1N1CCN(C(=O)c2csc(C)c2CC)CC1	inconclusive [activator, single point]
Cc1ccc(CSc2nnc(-c3ccc4c(c3)OCO4)o2)cc1	inactive
CCOC(=O)N1CCN(C(=O)c2ccc3c(c2)NC(=O)/C(=C/c2ccccc2)S3)CC1	inconclusive [activator, single point]
O=C(COC(=O)CNC(=O)C1CCCCC1)Nc1ccc2c(c1)OCCO2	inactive
O=C1C=C(O)c2cccc(O)c2C1=O	inconclusive [activator, single point]
CCS(=O)(=O)C1=NN2C(=N)/C(=C\c3ccc(OS(=O)(=O)c4ccccc4)cc3)C(=O)N=C2S1	inconclusive [activator, single point]
COc1ccc(CNC(=O)C2CCCN(S(=O)(=O)c3ccc(-n4cnnn4)cc3)C2)cc1 (stereo unspecified)	inconclusive [activator, single point]
O=C(CC(C(=O)O)c1ccc(Cl)cc1)c1ccc(Cl)c(Cl)c1 (stereo unspecified)	inconclusive [activator, single point]
CC(C)(C)Nc1cccccc1=O	inconclusive [activator, single point]
O=C(N/N=C/c1c[nH]c2ccccc12)c1ccc2c(c1)OCCO2	active: 16.4 µM
O=C(c1cc2cc(Br)ccc2o1)N1CCCC1	inactive
O=C(Nc1nc(-c2ccccc2)cs1)C1CCCCN1S(=O)(=O)c1ccccc1 (stereo unspecified)	inactive
O=C(Nc1cc(S(=O)(=O)N2CCCC2)ccc1Cl)c1cc(F)c(F)c(F)c1F	inconclusive [activator, single point]
COc1ccc(/C=N/NC(=O)c2ccc(NC(=O)C3CCCCC3)cc2)cc1O	inconclusive [activator, partial curve, poor fit]
CCS(=O)(=O)n1nc(-c2ccco2)nc1SC	inconclusive [activator, partial curve, poor fit]
CC(Oc1ccc(Cl)cc1Cl)C(=O)NCCCCc1ccccc1 (stereo unspecified)	inconclusive [activator, single point]
Cc1nn(-c2ccccc2)c(C)c1NC(=O)COc1ccc(Br)cc1Cl	inconclusive [activator, single point]
COc1ccc(O)c(/C=N/NC(=O)c2cccc(N3CCCC3=O)c2)c1	inactive
CS(=O)(=O)N(Cc1nc(-c2ccc(F)cc2)no1)c1ccccc1Cl	inactive
COc1ccccc1CCC(=O)Nc1ncc(C)s1	inconclusive [activator, single point]
C/C(CC(=O)Nc1cc(C)ccn1)=N\NC(=O)c1ccc(C)cc1	inactive
O=C1/C(=C\Nc2ccc(Cl)cc2)CCN1c1ncccn1	inconclusive [activator, partial curve, poor fit]
COc1ccc(C)cc1Nc1n[n+](-c2ccccc2)c(-c2c(Cl)cccc2Cl)s1	inconclusive [activator, single point]

Structure (SMILES)	Potency
O=C(O)c1ccc(/C=N/N2CCN(Cc3ccccc3)CC2)cc1	inactive
CC1CCCCN1S(=O)(=O)c1ccc(S(=O)(=O)N2CCCC2)cc1 (stereo unspecified)	inactive
CN(C(=O)COC(=O)c1ccc(Cl)c(S(=O)(=O)N2CCCCC2)c1)C1(C#N)CCCCC1	inactive
O=C1OCCC1Sc1nnc(-c2ccc3c(c2)OCO3)o1 (stereo unspecified)	inconclusive [activator, full curve, poor fit]
CCOC(=O)c1[nH]cnc1C(=O)Nc1cccc(N)n1	inactive
Cc1cc(Cl)ccc1N=C1N=C(N)c2ccccc21	inconclusive [activator, single point]
COc1ccc(CC(=O)OCC(=O)NC2CCCCCC2)cc1OC	inactive
C/C(=N\N(c1ccccc1)c1ccccc1)c1ccc(O)cc1	inconclusive [activator, single point]
O=C(CSc1c(Cl)cccc1Cl)N1CCC(c2nc3ccccc3s2)CC1	inconclusive [activator, single point]
CCCNC(=O)Cn1sc2nc(C)cc(C)c2c1=O	inconclusive [activator, single point]
O=C(CCN1CCN(c2ccccc2F)CC1)Nc1cccc(F)c1	inactive
C=CCc1ccccc1OCC(O)CN1CCN(C(=O)OCC)CC1 (stereo unspecified)	inactive
Cc1cc(-c2ccc(C(C)C)c(S(=O)(=O)N3CCN(c4ccccc4)CC3)c2)on1	inconclusive [activator, partial curve, poor fit]
COc1ccc(-n2c(C)cc(/C=C3\SC(=S)N(Cc4ccco4)C3=O)c2C)cc1	inconclusive [activator, partial curve]
O=C(Nc1ccc(Br)cc1)c1cccc(-n2cnnn2)c1	inconclusive [activator, partial curve, poor fit]
CC(=O)OCC1=C(C(=O)O)N2C(=O)C(NC(=O)CCn3nc(C)c(Cl)c3C)C2SC1 (stereo unspecified)	inactive
CN(C)C=C1C(=O)c2ccccc2C1=O	inconclusive [activator, single point]
Fc1ccc(-c2csc3ncnc(N4CCN(c5ccccc5)CC4)c23)cc1	inconclusive [activator, single point]
Cc1cc(Nc2cccc(Cl)c2)nc(NCc2ccccc2)n1	inconclusive [activator, single point]
CCOC(=O)c1c(NC(=S)NC(=O)c2cnn(CC)c2)sc2c1CCC(C)C2 (stereo unspecified)	inconclusive [activator, partial curve, poor fit]
Cc1ccc(-c2cc(-c3cccc(F)c3)n[nH]2)c(O)c1	inconclusive [activator, single point]
CC1=C([N+](=O)[O-])C(c2ccc(Cl)cc2)NC(=O)N1C (stereo unspecified)	inconclusive [activator, single point]
Cc1csc(=O)n1CCC(=O)OC(C)C(=O)NCc1ccccc1 (stereo unspecified)	inactive
